Data on 40 sequences can be found in the supplement of paper PMC7826260.

This is one part of the list. One pool of 16,384 single-stranded DNAs met each Rep nickase domain in vitro (1 h at 37 °C, 3 µM enzyme); the outer parts of the 90-letter strands are left off. Values are log2 of uncut reads against the no-enzyme pool; the lower, the more was cut; hits are not called. The scaling is to total reads; uncut strands gain when others are lost, and binding without cutting may add a little.

In this assay the test system is T1, Rep nickase domain of tomato golden mosaic virus.
T1 sequence (protein, residues 1-124, tag omitted): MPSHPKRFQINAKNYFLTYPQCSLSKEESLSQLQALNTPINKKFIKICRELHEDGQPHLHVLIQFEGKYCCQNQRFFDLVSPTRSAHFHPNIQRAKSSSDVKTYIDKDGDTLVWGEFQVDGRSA
Put plainly: uncleaved DNA left, log2 of reads against the no-enzyme library (log2 ratio); higher = less cleavage (more negative = more Rep cleavage of the k-mer); sequences stand for … in CTCGTCCG…ACCGGAGA
The method, then: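 A pool of 90-nt single-stranded DNAs with seven random bases just before the constant AC of the nick site (name = the seven bases) was cut by 3 µM recombinant His6-SUMO-tagged Rep nickase domain (300 nM DNA, 50 mM HEPES pH 8.0, 50 mM NaCl, 1 mM MnCl2, 1 h, 37 °C, three replicates). Uncut DNA was amplified and sequenced.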
In the case of AGCTACT, the “uncleaved DNA left (log2)” value stood at 0.185. The result for TCTAGGG reads 0.0893. With GTCAACA the figure was 0.0454; with GGTGCAT, -0.0839. As to TGTTCAA, the “uncleaved DNA left (log2)” value turned out to be 0.0132. The result for CGTGATA reads 0.0187; that for ACCTTAT, 0.0664; that for AAACGTG, 0.0802. With TGATCGG the figure was 0.115; with AGGATGG, 0.0637. The result for TGGCACA reads -0.0805; that for ACTCTGA, 0.114. Turning to TCCTTGG, the “uncleaved DNA left (log2)” value is 0.291. The result for AGATTAA reads 0.0692; that for CTATCGG, 0.0939; that for AGCTAGC, 0.000858. With AAATCAG the figure was 0.0485; with ACAGGCA, 0.0297; with CCATTAG, -0.026.

For the sequence ATGATGT, the “uncleaved DNA left (log2)” value was -0.0951. As for GTCTCCC, the “uncleaved DNA left (log2)” value is -0.147. With ACGTCCG the figure was -0.0435. With TCCATCT the figure was -0.0185. With CACCAGC, the “uncleaved DNA left (log2)” value was -0.0222. The result for CAACCCG reads -0.0656. Turning to GTAGGAT, the “uncleaved DNA left (log2)” value was determined as 0.037. The result for TGTTCGA reads -0.0577; that for AACCATA, -0.0497; that for TAGTGAG, -0.0633.

For the sequence CCTCCGG, the “uncleaved DNA left (log2)” value is 0.0106. With CCCGCCA the figure was 0.0106; with GAAAATC, 0.0431.

With CAGAACA, the “uncleaved DNA left (log2)” value amounted to 0.15.

On to GTGGGTC, for which the “uncleaved DNA left (log2)” value is -0.0232. As for TCGTTTG, the “uncleaved DNA left (log2)” value was -0.0733. Consider GCAACAC, for which the “uncleaved DNA left (log2)” value turned out to be 0.0569. Turning to TCTTCAG, the “uncleaved DNA left (log2)” value was determined as 0.0742. For the sequence TGAAATC, the “uncleaved DNA left (log2)” value was determined as 0.16. The result for TGCCCGA reads 0.00508; that for GGGGGGT, 0.0643.
